Data: the supplement of paper PMC11417369
± gives the standard deviation of the averaged measurements. The list shows a part of the results.

What follows are sequences tested on PfAP2-EXP AP2 domain (GST-tagged) (assay: gcPBM binding intensity (ln(normalized median fluorescence intensity)); higher = stronger DNA binding).
Summary of the method: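 DNA-binding domains from P. falciparum, fused to GST and produced in E. coli, were put on an Agilent 4 × 180k double-stranded probe array for 1 h in 1× PBS holding 1% milk, 0.2 mg/ml BSA, 0.5% salmon testes DNA and 0.03% Triton X-100. Probes were primer-extended, 36 bp long and drawn from intergenic genomic regions, with negative controls included. After Alexa488 anti-GST antibody detection and a 488 nm scan, binding intensity was set as the highest Masliner-normalised natural-log median intensity across replicate spots of either probe orientation.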

Row | Sequence | gcPBM binding intensity (ln)
1 | ATTTTAAAAAGGATAGTGCAAATGTTAAAATAGGAC | 9.42 ± 0.35
2 | AAATAATACAAGGGCTGTACATAAAAAGGAGTATAT [XGTACX_site839] | 9.23 ± 0.47
3 | GTATATATCCCAAAATGTACATAATTTATTATTTAT [XGTACX_site2842] | 8.51 ± 0.42
4 | AGAAAAAAAAAAAGTACACACATATAACATATAGAT [CACACA_site7410] | 8.73 ± 0.49
5 | ATTTATTTTCTGTGTACACATATGTTGGGTATTTTA [CACACA_site5902] | 9.14 ± 0.45
6 | TTTTATTTATAATACTCACACATTTATATTACATAT [CACACA_site6000] | 8.55 ± 0.34
7 | CAAAAGGATGTGGGATGTACATATGAAAAAAAAAAA [XGTACX_site8059] | 8.9 ± 0.63
8 | ATTACTAAAAAATATAAACACACATATATTTTACAT [CACACA_site8633] | 8.45 ± 0.35
9 | TAAATTTAAAAATCTGCACACATTTAAAAAAAAAAA [CACACA_site2515] | 8.39 ± 0.33
10 | TTGTATGTAAAAAAGTGTACATGAGTGATTATATAA [XGTACX_site8166] | 8.74 ± 0.4
11 | GGTCTTTTTTTCAAAAGTACATAAATAAAAAAGGTT [XGTACX_site2894] | 8.74 ± 0.47
12 | GAAAATTTAAAAAGAGTGCATTATATGTTTGAATAT [GTGCAC_site9564] | 8.77 ± 0.028
13 | AATAAAATAATAAAAGCACACAAGAATACACCCAAA [CACACA_site7919] | 9 ± 0.33
14 | TTTAACGAATAAAAATGTACAAATTTATACATTTAT [XGTACX_site2805] | 8.29 ± 0.42
15 | CTTTTTTTCTTTCCAAGTACTAAATTCATACAAATT [XGTACX_site2605] | 8.63 ± 0.33
16 | ATAATAACTGATAAATGTACATATAAATTTTATGAT [XGTACX_site195] | 8.73 ± 0.36
17 | AGGATATGCGGACACACACACATATATATATATATA [CACACA_site5247] | 10.1 ± 0.47
18 | ATAATTTAAAAACATTGTACATTAATATATATGTAT [XGTACX_site8970] | 8.28 ± 0.3
19 | ATACTCACGAAACACACACACAATATATATATATAT [CACACA_site4136] | 10.1 ± 0.48

Row | Sequence | gcPBM binding intensity (ln)
20 | TTTATATTTCTTCATCGTACACATAAAAAAAAAAAA [XGTACX_site3244] | 8.68 ± 0.41
21 | GAAAATATTAAATGAAGTACAATATTTATGTTACTT [XGTACX_site8737] | 8.34 ± 0.34
22 | TTTTATATTTTAAGAGTGCATTTTATATCTTTTTCT | 8.48 ± 0.24
23 | TGAAAGAATGTTAATAGTACACACAATTATTATATA [XGTACX_site7936] | 8.48 ± 0.32
24 | ATTGATATTGTATAATGTACAGGAAAAAAAAAAAAA [XGTACX_site526] | 8.71 ± 0.52
25 | TAAGAACTATTCAGTAGTACCTATATGGATTACTAA [XGTACX_site4278] | 8.04 ± 0.38
26 | TGAAAGAACCTGATTACACACATAAGTTATAAATAT [CACACA_site6165] | 8.3 ± 0.54
27 | TTCTTTATTTTTTCTACACACATTATGTATTCAAAG [CACACA_site3527] | 9.04 ± 0.43
28 | AATATATATTTGTGTACACATTATATATATATATAT [CACACA_site6103] | 10 ± 0.35
29 | AATCTCAGAATATACTGTACTTTAAGAAAAAAAAAA [XGTACX_site110] | 8.32 ± 0.31
30 | AAAATTTAAATAGGAAGTACGTTCACTAAGAAAATA [XGTACX_site6546] | 9.05 ± 0.52
31 | AAATAAAGATATATATATATATATATATATAATTTT [CACACA_negctrl_site30] | 8.59 ± 0.23
32 | AATATAAAAAGGCACACACACAAAAAAAAAAAAAAA [CACACA_site896] | 8.26 ± 0.49
33 | AAATATTTTGCATACACATGCAAATATTTTTTACAT [TGCATGCA_site554] | 8.6 ± 0.085
34 | CATAAATCAGCCATAACACACATACCTATATACATA [CACACA_site6324] | 8.44 ± 0.42
35 | AAAATGTGCATATTTGCACACTTCAATATATATATA [CACACA_site1791] | 9.73 ± 0.18
36 | ATAGGTTCCCAAAATGCACACCAATGAAATTATTTA [CACACA_site8081] | 8.655 ± 0.007
37 | CAAGCTTTTTCCTTTACACACATTAGTTATTTATAT [CACACA_site6781] | 8.84 ± 0.61
38 | ATATTATTTTAAAGTACACACATATATTAAGATATA [CACACA_site5306] | 8.44 ± 0.26

Row | Sequence | gcPBM binding intensity (ln)
39 | CAGTATTACATGAGGACACACACAAAAAAAATATAT [CACACA_site8156] | 8.97 ± 0.63
40 | TTAATATATTATCTGGTGCATAAACACGTTATACCT | 8.84 ± 0.2
41 | TATTTTATATTTTATGCACACTTATAAGAAATATGT [CACACA_site5647] | 8.71 ± 0.28
42 | ATGATTTCACAAGACACACACATACAAATTTATATA [CACACA_site3909] | 8.7 ± 0.32
43 | TATTAATATGGTAATACACACTAATATACTTTTGTT [CACACA_site6860] | 8.32 ± 0.41
44 | ATATATATATATATATGTACGTATTCATAAACAACA [XGTACX_site4282] | 10.2 ± 0.6
45 | TTTAATGTTACTCCTTGTACACAAAATAGTGTTATA [XGTACX_site8416] | 8.47 ± 0.28
46 | CTGTAAAAAATATAAACACACATAGAGATATATAAA [CACACA_site6292] | 8.7 ± 0.41
47 | TAAGTATATTTTATATGTACTTATATATTTAATTTT [XGTACX_site4615] | 7.99 ± 0.071
48 | TTTAAAATTATAAGGATTAAAAAAAAAAAAAATAAA [CACACA_negctrl_site114] | 8.27 ± 0.45
49 | AACAAATAAAAAAAAATAAAAATAAAAATAAAAAAA [XGTACX_negctrl_site451] | 8.38 ± 0.38
50 | TTATTTATGAAGTATACACACAATATAGATTTATAT [CACACA_site6703] | 8.39 ± 0.45
51 | AAGAATTATATTAATAGTACATATATATTAATTTAT [XGTACX_site5713] | 8.22 ± 0.45
52 | TTTTGTTATTATAAATAGTAACATTTGTGAATATAT [TGCATGCA_negctrl_site132] | 8.26 ± 0.55
53 | AAGACATTTTTTTGTTGTACGTCTTCATTTATTGTA [XGTACX_site2890] | 8.71 ± 0.28
54 | ATGGAAGGATAATAAAAACCTTTACCTTTCTGTTTA [GTGCAC_negctrl_site380] | 8.12 ± 0.25
55 | ATAATGAAAACAAGCACACATACATAAAATAAAATA [CACACA_site3257] | 8.89 ± 0.49
56 | ATAAATTTTTAAACAGCACACATAAATATAATATAT [CACACA_site8691] | 8.75 ± 0.34
57 | AATATTACAATTTGGTGTACAGGTGCACATGCCTCA [XGTACX_site1730] | 9.4 ± 0.51
